The list shows a part of the results.
System: T1, Caupolican (Caup) homeodomain DNA-binding domain
T1 sequence: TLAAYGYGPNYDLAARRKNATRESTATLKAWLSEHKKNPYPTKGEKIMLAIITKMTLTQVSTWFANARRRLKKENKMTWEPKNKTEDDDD
Assay: PBM E-score (8-mer, recovered from the published 9-mer minima) (E-score (dimensionless, -0.5 to 0.5)); Drosophila protein; higher = stronger relative binding preference, active = 0.31 or more
Method in brief: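 Caup's homeodomain DNA-binding domain (residues 214-303) was produced by in vitro transcription and translation and applied at 100 nM to custom-designed protein binding microarrays. Each value is an enrichment score giving relative binding preference for a short DNA word; higher means stronger. Published 9-mer scores were the minimum of their two constituent 8-mer scores, and the 8-mer values were recovered from those minima. A cutoff of 0.31 marks candidate binding sequences.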

Sequence	PBM E-score
AGCTTCGA	inactive: -0.0868
ACAGAGCG	inactive: 0.0115
ATTGTGCG	inactive: -0.0378
ACTTAAGT	inactive: 0.0483
ACTGTCTC	inactive: -0.00505
TCTGGACA	inactive: 0.196
ACAGACCG	inactive: 0.00042
ACACATCA	inactive: 0.156
CGATTAAC	inactive: 0.0632
CATTACCG	inactive: 0.0447
GAGGGGAC	inactive: -0.138
CCCGTCTA	≥ -0.0405
AGTCACCA	inactive: 0.00793
ATGCCTTA	inactive: -0.041
ATATTTGA	inactive: 0.131
AGGTGACA	inactive: 0.159
ACATAACA	active: 0.332
AATGGCAG	inactive: -0.056
GGTCCTCA	inactive: -0.0928
AATCATGT	active: 0.42
GCACGCCC	inactive: -0.192
GCCCATGA	inactive: -0.142
CACTTAAG	inactive: 0.0776
ACGGCCCT	inactive: -0.161
ATGGTGCG	inactive: 0.0265

Sequence	PBM E-score
CTAAGCTC	inactive: -0.05
GAGTTTGC	inactive: -0.0488
CTCAACAG	inactive: 0.012
CAAATGTA	inactive: 0.294
CCGGGTGC	inactive: -0.287
GCTAAATA	inactive: 0.0153
CTATCTTA	inactive: 0.0289
CACCCCGG	inactive: -0.0927
GAAGACGC	inactive: -0.143
AATCACAC	inactive: 0.126
GGAGTTAC	inactive: 0.0415
CCGACCCG	inactive: -0.206
GACGATTA	inactive: 0.111
GTCAGAAC	inactive: 0.0109
CAATATCA	inactive: 0.195
CAGCGGAA	inactive: -0.159
AGGTTACT	inactive: 0.0483
GAAACAGC	inactive: -0.00702
CCGCTAAC	inactive: -0.0919
CACAATCG	inactive: 0.0134
ACCCGGGA	inactive: -0.11
GCGGAGTA	inactive: -0.0693
CCATGGCA	inactive: -0.0986
TAGGCGCA	inactive: -0.0855
ACTCCGCA	inactive: -0.121

Sequence	PBM E-score
ACAGAACA	inactive: 0.297
CCTGCTAC	inactive: 0.0387
ACCGGTCG	inactive: -0.0163
CTGTCATA	inactive: 0.246
CGAGAAGC	inactive: -0.0725
CCCATCAC	inactive: -0.0736
CCCTGATC	inactive: -0.118
ATCACAGC	inactive: 0.089
AATGGGCC	inactive: -0.152
GACAGCGC	inactive: 0.00179
CCTTGCCG	inactive: -0.169
ACTCGAGG	inactive: -0.122
AGAAAAAT	inactive: 0.0492
CTAGCTTA	inactive: -0.00803
ATAGCGGA	inactive: -0.0519
GGACAATA	inactive: 0.0441
AGCGGAAC	inactive: -0.0552
AACGCCGA	inactive: -0.0968
CTGCGACC	inactive: -0.228
AGCAGTGG	inactive: -0.191
AGGTCTGA	inactive: -0.0349
GACGGAAC	inactive: 0.00422
AAAGTCGG	inactive: -0.134
ACGTGTGC	inactive: 0.0653
GTTAGTGA	inactive: 0.152

Sequence	PBM E-score
AGAATTGA	inactive: 0.0274
CCAAGCAA	inactive: -0.0569
CTGTTTCC	inactive: 0.0673
AGTTAGAG	inactive: -0.067
CACGTGCC	inactive: 0.0232
GTTGTATA	active: 0.347
AAGTAGCT	inactive: 0.0117
AAGAGGCA	inactive: -0.122
AATGATCC	inactive: 0.0625
AGAACAAG	active: 0.329
AAAAATGT	inactive: 0.156
AGACTCTG	inactive: -0.015
AAATCATC	inactive: 0.141
CCTGTAAC	inactive: 0.176
GCCATAGC	inactive: -0.0247
CCACAAAA	inactive: -0.0507
ACGTTGCG	inactive: -0.0633
AGGAAATC	inactive: 0.0471
CACTATGA	inactive: 0.0412
ACTATAAT	inactive: 0.162
CCCAACAC	inactive: -0.0228
ATCCCGAT	inactive: 0.0662
GCTAATTA	inactive: 0.176
ATTGAAAA	inactive: 0.0968
ACTTCGGC	inactive: -0.147

Sequence	PBM E-score
GCGATCGA	inactive: 0.0192
ATCAAACG	inactive: 0.0303
GATTCTGC	inactive: 0.0258
GTGGTAAA	inactive: 0.103
CAGATTCA	inactive: 0.0623
ACCCTTCC	inactive: -0.0906
CCACTTCA	inactive: -0.0321
CACGGTCC	inactive: -0.0957
CCAACTAA	inactive: 0.0388
AACATCTA	inactive: 0.252
AAAAACTC	inactive: -0.0364
CCAGAATA	inactive: 0.0959
ACCGTGCA	inactive: 0.00395
AGCTCCCA	inactive: -0.138
GTAGAGAA	inactive: -0.0528
ATTACTGC	inactive: 0.106
CCATGAGG	inactive: -0.199
GCAGAAAA	inactive: 0.004
CGATATTA	inactive: 0.219
ACCCATGG	inactive: -0.101
ACGCCCAT	≥ -0.00794
CATCAGAC	inactive: 0.067
CACTATTA	inactive: 0.124
CGTTAGGA	inactive: 0.00342
CGGTTTAA	inactive: 0.0679

Sequence	PBM E-score
AAGTTGGA	inactive: 0.0552
ACATGTGG	inactive: 0.308
GCCTTAAA	inactive: -0.16
CTTTAGCA	inactive: -0.0832
CGGAAGAC	inactive: -0.0117
GAGCTGAC	inactive: -0.0129
CGCGGCCC	inactive: -0.267
TCATACGA	inactive: 0.104
CTTTCATC	inactive: -0.0828
CTCGAGAC	inactive: 0.0356
ATCAACTC	inactive: 0.0558
TGTACGAA	inactive: 0.263
CCGCGCGA	inactive: -0.136
GTTATATA	inactive: 0.225
AACCCAAG	inactive: 0.0182
CAGTAGGC	inactive: -0.0857
AGTACGAT	inactive: 0.0654
CGGGGCGA	inactive: -0.166
GAAGCAAA	inactive: 0.0215
AAGCGGCA	inactive: -0.0573
AAGTTGCA	≥ 0.123
GTTTCGTA	inactive: 0.119
CTTCCGAC	inactive: -0.0133
GGGGCCCC	inactive: -0.304
CCAGAAAC	inactive: -0.0438

Sequence	PBM E-score
AGTCTAAA	inactive: -0.00954
CTTATACC	inactive: 0.0127
ACGCCAGT	inactive: -0.153
ACCAACTC	inactive: -0.0119
CACGGCAC	inactive: -0.0334
GGGTCTTA	inactive: -0.101
ACAATCAG	inactive: 0.103
CACTTAAC	inactive: 0.121
GTACGTTA	inactive: 0.181
ACCTCCGT	inactive: -0.111
ATTATAAT	inactive: 0.156
CTTGTGGC	inactive: -0.0577
CCTTCGAA	inactive: -0.138
CGAGCGTC	inactive: -0.186
CCCGGCTC	inactive: -0.226
AGACTCTA	inactive: -0.00144
CAATCAAA	inactive: 0.14
AACAATCC	inactive: 0.151
CCCCTGTA	inactive: 0.113
CGGCTGTC	inactive: -0.0751
ACACTAAT	inactive: 0.13
TAGATTAA	inactive: 0.0851
GATCAGAC	inactive: -0.0261
AAGCCTCG	inactive: -0.166
CCGCCCGC	inactive: -0.315

Sequence	PBM E-score
ATTATTGC	inactive: 0.169
CCAAACAA	inactive: 0.16
ACACCATG	inactive: 0.168
GGAAACAA	inactive: 0.187
AGTTGTGA	inactive: 0.143
AATACGGC	inactive: 0.00511
ACGAATAC	inactive: 0.146
GAGATATA	inactive: 0.0512
ATTCCTTC	inactive: -0.0217
ATCCACAA	inactive: 0.0335
CACGTCGC	inactive: -0.0859
GCAGGAGC	inactive: -0.155
CACACTCG	inactive: 0.0334
CAGCTGAC	inactive: -0.0534
ACGGCAGT	inactive: -0.0873
AAGGCGAC	inactive: 0.00668
CGTTGTGC	inactive: 0.0498
CTATCGGC	inactive: -0.117
AGGAGGCG	inactive: -0.257
GAGGCACA	inactive: -0.116
CGCGGTTC	inactive: -0.123
TAAGCGTA	inactive: -0.0033
CCAGCGCA	inactive: -0.15
GTTACAAA	inactive: 0.285
AAGGTACC	inactive: -0.127

Sequence	PBM E-score
TACCCTCA	inactive: -0.0982
GCCCAGTA	inactive: -0.0895
AGGGGCTC	inactive: -0.299
ATGGTAGC	inactive: 0.00537
GACGAACC	inactive: -0.0687
ACTTGTAC	active: 0.407
CCTCTTCC	inactive: -0.208
CCTTCCAC	inactive: -0.15
GGGCATTA	inactive: -0.0527
CTTAGCTC	inactive: -0.183
AATTACCT	inactive: 0.0993
GCTCACTA	inactive: 0.0451
CTTAGACC	inactive: -0.0746
ACCGGCAC	≥ 0.0136
ACAGTGAG	inactive: 0.015
AGAGGGAG	inactive: -0.11
AAAATCTT	inactive: 0.0333
CAGTCTAA	inactive: 0.05
TCGGTAGA	inactive: 0.0297
GGCTAGCC	inactive: -0.273
ACGGGCTG	inactive: -0.163
AGTTAACG	inactive: 0.113

Reference: the supplement of paper PMC3724861
